Experimental data from paper PMC10470960.
Changes are numbered by the printed parent chain. These are yes or no findings as the source states them, for the method shown. Some entries that bind do so weakly or less than the wild type. Where a sequence is shown, tags or fusion partners need not be part of it.

Key:
Assay in all cases: two-hybrid; KAR4-GBD alleles with IME4-GAD in PJ69-4 diploids; 24 hours in meiosis-inducing conditions, then 10-fold serial dilutions on SC-HIS and SC-ADE (HIS3 and ADE2 reporters); graded ++++ to -
[1] = molecular target: T1, Kar4p W212R fused to the Gal4p DNA-binding domain (S. cerevisiae) (UniProt P25583)
T1 sequence: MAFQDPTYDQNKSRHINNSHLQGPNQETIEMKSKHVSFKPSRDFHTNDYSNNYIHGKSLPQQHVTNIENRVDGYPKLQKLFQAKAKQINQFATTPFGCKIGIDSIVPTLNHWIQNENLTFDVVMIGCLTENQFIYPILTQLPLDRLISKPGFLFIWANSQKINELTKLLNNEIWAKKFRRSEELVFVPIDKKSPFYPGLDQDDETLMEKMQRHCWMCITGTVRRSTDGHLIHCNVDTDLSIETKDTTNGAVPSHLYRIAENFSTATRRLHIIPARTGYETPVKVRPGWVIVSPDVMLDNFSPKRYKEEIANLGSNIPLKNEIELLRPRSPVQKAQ

[2] = molecular target: T2, Kar4p E260G fused to the Gal4p DNA-binding domain (S. cerevisiae) (UniProt P25583)
T2 sequence: T1 sequence with R212W, E260G

[3] = molecular target: T3, Kar4p G126A fused to the Gal4p DNA-binding domain (S. cerevisiae) (UniProt P25583)
T3 sequence: T1 sequence with G126A, R212W

[4] = molecular target: T4, Kar4p P273L fused to the Gal4p DNA-binding domain (S. cerevisiae) (UniProt P25583)
T4 sequence: T1 sequence with R212W, P273L

[5] = molecular target: T5, Kar4p E183K fused to the Gal4p DNA-binding domain (S. cerevisiae) (UniProt P25583)
T5 sequence: T1 sequence with E183K, R212W

[6] = molecular target: T6, Kar4p A157P fused to the Gal4p DNA-binding domain (S. cerevisiae) (UniProt P25583)
T6 sequence: T1 sequence with A157P, R212W

Measured: binding

B1: Ime4p fused to the Gal4p activating domain (protein, UniProt P41833 1-600)
chain: MINDKLVHFLIQNYDDILRAPLSGQLKDVYSLYISGGYDDEMQKLRNDKDEVLQFEQFWNDLQDIIFATPQSIQFDQNLLVADRPEKIVYLDVFSLKILYNKFHAFYYTLKSSSSSCEEKVSSLTTKPEADSEKDQLLGRLLGVLNWDVNVSNQGLPREQLSNRLQNLLREKPSSFQLAKERAKYTTEVIEYIPICSDYSHASLLSTSVYIVNNKIVSLQWSKISACQENHPGLIECIQSKIHFIPNIKPQTDISLGDCSYLDTCHKLNTCRYIHYLQYIPSCLQERADRETASENKRIRSNVSIPFYTLGNCSAHCIKKALPAQWIRCDVRKFDFRVLGKFSVVIADPAWNIHMNLPYGTCNDIELLGLPLHELQDEGIIFLWVTGRAIELGKESLNNWGYNVINEVSWIKTNQLGRTIVTGRTGHWLNHSKEHLLVGLKGNPKWINKHIDVDLIVSMTRETSRKPDELYGIAERLAGTHARKLEIFGRDHNTRPGWFTIGNQLTGNCIYEMDVERKYQEFMKSKTGTSHTGTKKIDKKQPSKLQQQHQQQYWNNMDMGSGKYYAEAKQNPMNQKHTPFESKQQQKQQFQTLNNLYFAQ
binds: [1] | [2] | [4] | [5] | [6]
no binding: [3]
